# Reference: PubChem BioAssay AID651820 (National Center for Advancing Translational Sciences (NCATS), 2012)
# Values joined by “and” are separate entries in the source; they are usually repeats but may differ in a detail not shown here. Equal entries are not always repeated. Among all 340,000 compounds or so, about 12,000 (3.5%) were called active. Inconclusive results, whose numbers are uncertain, are shown with a selection of clear calls. Calls come from the whole dose curve; as a rule, active = well fitted inhibition curve with a large enough effect; inconclusive = small, poorly fitted or top-dose-only effect, or another doubt; inactive = no such curve, though single readings can be large or run the other way. Potencies of inconclusive entries are doubtful fits and often do not repeat.
# Assay: qHTS Assay for Inhibitors of Hepatitis C Virus (HCV)
# Details: Huh7.5.1 HCVcc-Cre (HCVcc is cell-culture hepatitis C virus) infection, luciferase reporter, 44 h; activity change, negative = inhibition: at 41.8 µM (top of the series)
# Summary of the method: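 After 44 h co-culture of compound, cells and HCVcc-Cre (~0.5 moi), substrate is added for 15 min at room temperature and luciferase measured over 15 sec. Cells were seeded at 1,000/well and pre-cultured 4 h.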
# % is set by controls: 0 for no effect and ±100 for the full control effect; potency is the fitted concentration of half-maximal effect; tags give direction and shape of the fitted curve.
SMILES,Potency,"activity change, negative = inhibition"
Cc1nn(-c2ccc(F)cc2)c(Cl)c1C(=O)N(C)CC(=O)Nc1cccc(F)c1,"inconclusive: 14.1 µM [inhibitor, single point]",
CCCCNC(=O)c1sc2ncnc(N3CCc4ccccc4C3)c2c1C,"inconclusive: 8.91 µM [inhibitor, partial curve, poor fit]",
O=C(Cc1ccc(Br)c2ccccc12)N/N=C/c1ccccn1,,inconclusive: -35.9% [inhibitor]
CCOC(=O)Cn1nc(C(F)F)c(Br)c1C,inactive,
CCN(CC)c1ccc(NC(=S)NC(=O)C2CCC2)cc1,"inconclusive: 25.1 µM [inhibitor, single point]",
Cn1c(=O)cc(SCC(=O)N2CCN(c3ccccc3)CC2)c2ccccc21,"inconclusive: 15.8 µM [inhibitor, partial curve]",
O=C(NC1CC1)C1=C[C@H](c2coc3ccccc3c2=O)C[C@H](OCc2ccc(CO)cc2)O1,inactive,
CC(C)OCCCn1c(=O)c2ccccc2n2c(CCC(=O)NC3CCN(Cc4ccccc4)CC3)nnc12,"inconclusive: 22.4 µM [inhibitor, partial curve]",
O=C(Nc1ccc2c(c1)OCO2)N1CCN(c2cccc(C(F)(F)F)c2)CC1,"inconclusive: 7.94 µM [inhibitor, partial curve]",
Cc1[nH]c2ccccc2c1C(=O)C(=O)N1CC=C(c2ccccc2)CC1,"inconclusive: 10 µM [inhibitor, partial curve]",
O=C(c1ccco1)N1CCN(C(=O)c2cnn(-c3cccc(F)c3)c2C2CCNCC2)CC1,inactive,
CC1CCN(C(=O)C(C)Sc2nc(-c3ccccc3)cc(C(F)(F)F)n2)CC1 (stereo not given),"inconclusive: 3.98 µM [inhibitor, partial curve]",
O=C(CN1C(=O)c2ccccc2C1=O)N1CCN(C2c3ccccc3-c3ccccc32)CC1,"inconclusive: 2.51 µM [inhibitor, full curve]",
CCC1Oc2ccc(C)cc2N(CC(=O)N(Cc2ccc(C)o2)C2CCCC2)C1=O (stereo not given),"inconclusive: 31.6 µM [inhibitor, single point]",
O=C(NCCc1ccccc1)c1ccc(Br)o1,"inconclusive: 4.47 µM [inhibitor, single point]",
COc1cc2c(cc1OC)CN(c1nc(CN3CCOCC3)nc3sc4c(c13)CCC(C)C4)CC2 (stereo not given),"inconclusive: 15.8 µM [inhibitor, single point]",
CCOc1ccc(CN2CCN(Cc3c(C)nn(CC)c3C)CC2CCO)cc1 (stereo not given),"inconclusive: 5.62 µM [inhibitor, single point]",
CCc1ccc(NC(=O)CS(=O)CC(=O)Nc2ccc(N3CCOCC3)cc2)cc1 (stereo not given),inactive,
N/C(=N\OC(=O)CCCc1ccccc1)c1ccc([N+](=O)[O-])cc1,inactive,
CCOC(=O)c1sc(N/N=C/c2cc(Br)c(O)c(OC)c2)nc1C,inactive,
COc1ccc(CCNC(=O)c2ccc3nc4cc(Cl)ccc4c(=O)n3c2)cc1OC,"inconclusive: 12.6 µM [inhibitor, partial curve]",
CCOC(=O)C1(CCOc2ccccc2)CCN(Cc2ccc(NC(C)=O)cc2)CC1,inactive,
C=CCN1C=C2C(=O)C(C)(OC(=O)c3cnc4ccccc4n3)C(=O)C=C2C=C1/C=C/COC (stereo not given),inactive,
Cc1ccc(C(=O)Nc2cccc(NC(=O)c3ccc(C)c([N+](=O)[O-])c3)n2)cc1[N+](=O)[O-],"inconclusive: 2 µM [inhibitor, full curve]",

SMILES,Potency,"activity change, negative = inhibition"
Nc1ccc2nc(-c3ccccn3)[nH]c2c1,"inconclusive: 8.91 µM [inhibitor, partial curve]",
COc1cc(C2NC(=O)c3ccccc3O2)cc(OC)c1OC (stereo not given),inactive,
Cc1[nH]c2ccc(OC(F)(F)F)cc2c1CCNCc1cccc([N+](=O)[O-])c1,"inconclusive: 31.6 µM [inhibitor, single point]",
CC1CCN(CCOCCOc2ccc(Cl)cc2Br)CC1,active: 22.4 µM,
COc1ccc(N/C=C(\C#N)c2nc3ccccc3n2C)c(OC)c1,active: 5.01 µM,
CCC(C)NCC(=O)Nc1ccc(-c2nc3cc(NC(=O)CNC(C)CC)ccc3o2)cc1 (stereo not given),inactive,
O=C(c1ccco1)N1CCCC(c2nc(-c3ccc(S(=O)(=O)NCc4ccccc4)cc3)no2)C1 (stereo not given),"inconclusive: 22.4 µM [inhibitor, single point] and inconclusive: 14.1 µM [inhibitor, single point]",
O=C(c1ccccc1)c1ccc(Oc2ccc(C(=O)O)c(C(=O)O)c2)cc1,inactive,
COc1ccc(N2C(=O)CC(N(CCc3ccc(OC)c(OC)c3)C(=S)Nc3ccccc3)C2=O)cc1 (stereo not given),inactive,
O=S(=O)(Nc1ccccc1-c1ccccc1)c1ccccc1,"inconclusive: 14.1 µM [inhibitor, single point]",
O=C(Nc1cccc(O)c1)c1cccc(S(=O)(=O)N2CCCC2)c1,inactive,
COc1ccc(OCc2cc(C(=O)N(C)Cc3cc(C4CC4)n[nH]3)no2)c(Cl)c1,"inconclusive: 31.6 µM [inhibitor, single point]",
C[C@H](CO)N1C[C@H](C)[C@@H](CN(C)S(=O)(=O)c2ccc(F)cc2)Oc2c(NC(=O)Nc3ccccc3)cccc2C1=O,"inconclusive: 31.6 µM [inhibitor, single point]",
O=C(NCCNC1CCC(c2ccccc2)CC1)c1ccc(F)cc1 (stereo not given),"inconclusive: 31.6 µM [inhibitor, single point]",
CCN(CC)S(=O)(=O)c1ccc(Cl)c(C(=O)OCC(=O)c2c(N)n(C)c(=O)n(C)c2=O)c1,"inconclusive: 11.2 µM [inhibitor, partial curve]",
Cc1ccc(Cl)cc1NC(=O)CSc1nnc(C)n1-c1ccccc1,inactive,
Cc1nc2ccc(NC(=O)c3ccc(Cl)s3)cc2s1,"inconclusive: 11.2 µM [inhibitor, single point]",
CCOc1ccc(/C=C2\CCC(C3CCCC3)C2=O)cc1 (stereo not given),inactive,
COc1cccc(C2C3=C(N=c4s/c(=C\c5cccc(O)c5)c(=O)n42)c2ccccc2CC3)c1OC (stereo not given),"inconclusive: 14.1 µM [inhibitor, single point]",
Cc1nnc(Sc2nc3ccccc3o2)c2ccccc12,"inconclusive: 31.6 µM [inhibitor, single point]",
COc1cccc(NC(=O)Cn2c(=O)n(CCC(=O)NC3CCN(Cc4ccccc4)CC3)c(=O)c3ccccc32)c1,"inconclusive: 12.6 µM [inhibitor, single point]",
Nc1ccc(NC(=O)c2cccs2)c(Cl)c1,inactive,
COC(=O)c1ccccc1NC(=O)CSc1nncn1C,inactive,
COc1cccc(Nc2c3c(nc4c(-c5ccccc5)c(C)nn24)CCC3)c1,"inconclusive: 8.91 µM [inhibitor, partial curve]",

SMILES,Potency,"activity change, negative = inhibition"
CSc1ccc(C(=O)C2CCCN(C(=O)c3cccnc3SC)C2)cc1 (stereo not given),"inconclusive: 31.6 µM [inhibitor, single point]",
CCCCNc1c(-c2ccc(SC(C)CC)c(OC)c2)nc2ccc(C)cn12 (stereo not given),active: 10 µM,
Cc1ccc(NC(=O)c2cc(S(=O)(=O)N3CCCCC3)c[nH]2)cc1F,inactive,
CC(=O)Nc1ccc2nc(NC(=O)COc3cccc(C)c3)sc2c1,"inconclusive: 14.1 µM [inhibitor, single point]",
COc1ccccc1NC(=O)c1cc2ccccc2o1,"inconclusive: 31.6 µM [inhibitor, single point]",
Cc1nc2nc(SCC(=O)NCCCN3CCCC(C)C3)nn2c(C)c1Cc1ccccc1Cl (stereo not given),active: 11.2 µM,
N#Cc1cccnc1N1CCN(C(=O)c2cccc3c2C(=O)c2ccc(-c4ccc(Cl)c(C(F)(F)F)c4)cc2S3(=O)=O)CC1,"inconclusive: 3.55 µM [inhibitor, single point]",
COc1ccc(CN2CCN(c3ncnc4scc(-c5ccc(F)cc5)c34)CC2)cc1,"inconclusive: 31.6 µM [inhibitor, single point]",
COC(=O)c1cc(S(=O)(=O)NCC2CCN(Cc3ccc(Cl)cc3)CC2)c[nH]1,"inconclusive: 31.6 µM [inhibitor, single point]",
O=C(Oc1ccc2ccccc2c1Br)N1CCCCCC1,inactive,
CCCCC(=O)Nc1ccc2oc(-c3cccnc3)nc2c1,inactive,
CC(C)N(Cc1ccccc1)C(=O)COC(=O)c1c(F)cccc1F,inactive,
Cc1nc(N2CCCC2)c2ccsc2n1,active: 14.1 µM,
COc1cc(-c2noc(C)c2C#CCO)cc(OC)c1OC,"inconclusive: 1.26 µM [inhibitor, partial curve]",
COc1ccc(CNS(=O)(=O)c2ccc(-c3ccc(=O)[nH]n3)o2)cc1,inactive,
COc1ccc(N2CCN(C(=O)c3cccc(S(=O)(=O)N4CCc5ccccc54)c3)CC2)cc1,"inconclusive: 22.4 µM [inhibitor, single point]",
Fc1ccc(CNC(=S)Nc2cccc(C(F)(F)F)c2)cc1,"inconclusive: 22.4 µM [inhibitor, partial curve]",
CCc1nc(NCc2ccccn2)c2oc3ccccc3c2n1,"inconclusive: 8.91 µM [inhibitor, partial curve]",
COc1cc(OC)c(CN2CCCN(C)CC2)cc1Br,active: 7.08 µM,
CC(=O)c1cccc(NC(=O)CSc2ccc(-c3ccco3)nn2)c1,"inconclusive: 10 µM [inhibitor, partial curve]",
FC(F)(F)c1nc(-c2ccccc2)ncc1-c1nnnn1-c1ccccc1,"inconclusive: 31.6 µM [inhibitor, single point]",
COC(=O)c1cc(NC(=O)Cc2ccccc2[N+](=O)[O-])ccc1Cl,"inconclusive: 5.01 µM [inhibitor, full curve]",
